Screen size: about 230,000 compounds; about 3,600 (1.6%) were called active. The inconclusive results got no clear call from the source; some entries with a clear call stand among them for comparison. Calls come from the whole dose curve; as a rule, active = well fitted inhibition curve with a large enough effect (not every such curve was filed as active); inconclusive = small, poorly fitted or top-dose-only effect, or another doubt; inactive = no such curve, though single readings can be large or run the other way. Potencies beside an inconclusive call are fits to weak or partial responses and may not hold up.
These molecules were tested against Lysine-specific demethylase 4E (Homo sapiens) (UniProt B2RXH2) (assay: qHTS Assay for Inhibitors of Human Jumonji Domain Containing 2E (JMJD2E)). Details: JMJD2E catalytic domain, FDH-coupled NADH fluorescence (FDH is formaldehyde dehydrogenase); series mostly up to 57.1 µM.
UniProt B2RXH2, sequence (B2RXH2 whole entry, looked up, the tested form may be a part): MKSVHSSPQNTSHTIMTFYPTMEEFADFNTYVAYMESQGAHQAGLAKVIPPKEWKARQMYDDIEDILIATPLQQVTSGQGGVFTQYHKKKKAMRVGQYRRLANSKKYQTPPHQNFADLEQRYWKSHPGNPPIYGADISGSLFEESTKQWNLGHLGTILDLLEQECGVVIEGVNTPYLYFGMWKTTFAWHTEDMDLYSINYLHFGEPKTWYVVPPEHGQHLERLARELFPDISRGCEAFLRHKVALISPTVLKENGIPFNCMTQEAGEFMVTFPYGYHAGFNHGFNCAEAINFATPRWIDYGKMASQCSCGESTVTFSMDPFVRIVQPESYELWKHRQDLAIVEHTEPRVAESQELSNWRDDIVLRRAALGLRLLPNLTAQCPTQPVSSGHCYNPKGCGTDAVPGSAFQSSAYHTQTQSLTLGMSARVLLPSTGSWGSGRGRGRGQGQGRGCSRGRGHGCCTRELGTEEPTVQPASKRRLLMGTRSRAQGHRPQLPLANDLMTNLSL
Note: nearly all actives have a fitted effect of over 50% in size.
Potency is the fitted concentration of half-maximal effect; tags give direction and shape of the fitted curve.

SMILES	Potency
Clc1ccc(N2CCN(c3cnc4ccccc4n3)CC2)cc1	inconclusive: 4.47 µM [inhibitor, single point]
CC(=O)c1cc(CC(=O)N2CCc3c([nH]c4ccccc34)C2c2ccccn2)cs1 (configuration not stated)	inconclusive: 39.8 µM [inhibitor, single point]
O=C(NNc1nc(-c2ccccc2)cs1)c1ccccc1	inconclusive: 39.8 µM [inhibitor, single point]
CCCCOC(=O)Nc1nnc(-c2ccccc2OC)s1	inconclusive: 39.8 µM [inhibitor, single point]
Cc1nc2nc(C)c(CCC(=O)N3CCN(c4ccccn4)CC3)c(C)n2n1	inconclusive: 39.8 µM [inhibitor, single point]
Cc1ccccc1NCC(=O)c1ccc(Br)cc1	inconclusive: 0.708 µM [inhibitor, full curve, poor fit]
O=C(c1ccco1)N1CCN(c2ncnc3c(-c4ccccc4)nsc23)CC1	inconclusive: 39.8 µM [inhibitor, single point]
CC(C)N(Cc1ccccc1)C(=O)Cn1c(=O)cnc2ccccc21	inconclusive: 25.1 µM [inhibitor, partial curve]
CC(C)c1ccccc1-n1cc[nH]c1=S	inactive
CN(C)C(=O)COc1ccc2ccc(=O)oc2c1	inconclusive: 28.2 µM [inhibitor, partial curve]
CC(C)c1ccc(NC(=O)CCCN2C(=S)NC(C)(C)CC2C)cc1 (configuration not stated)	inactive
CSc1ccc(/C=C/C(=O)NC(=O)c2ccccc2O)cc1	inconclusive: 10 µM [inhibitor, partial curve]
Cc1ccc2c(c1)C(=O)CC(O)(C(F)F)O2 (configuration not stated)	inconclusive: 22.4 µM [inhibitor, partial curve]
COc1ccc2c(c1)c(=O)oc1cc(OCC(=O)N3CCCC(C)C3)ccc12 (configuration not stated)	inconclusive: 20 µM [inhibitor, partial curve]
FC(F)(F)c1cnc2c(-c3ccccc3)n[nH]c2c1	inconclusive: 10 µM [inhibitor, partial curve]
CCCCOC(=O)c1cc(=O)[nH]c2ccccc12	inconclusive: 39.8 µM [inhibitor, single point]
Cc1ccccc1N1CCN(c2ncnc3scc(-c4cccs4)c23)CC1	inconclusive: 39.8 µM [inhibitor, single point]
C=CCNc1nc(N)c(C(=C(C#N)C#N)c2ccccc2)s1	inconclusive: 31.6 µM [inhibitor, partial curve]
CCOC(=S)SCC(=O)N1CCc2cc(OC)c(OC)cc2C1C1C(=O)CC(C)(C)CC1=O (configuration not stated)	inconclusive: 31.6 µM [inhibitor, partial curve]
CN(C)/C=C(\C#N)C(=O)c1cccc(Oc2ccc(Br)cc2)c1	inactive
O=C1CCSc2ccc(Cl)cc2N1Cc1cccc(Cl)c1	inactive
CSc1ccc(Cl)c(C(=O)Nc2ccc(C)cn2)c1	inconclusive: 39.8 µM [inhibitor, single point]
CCCCOc1ccc(C(=O)N/C(=C/C=C/c2ccccc2)C(=O)O)cc1	inconclusive: 39.8 µM [inhibitor, single point]
C/C(CC(=O)Nc1cccc2c1CCCC2)=N\NC(=O)c1ccccc1N	inconclusive: 31.6 µM [inhibitor, partial curve]

SMILES	Potency
O=C1C(C2=NC(C(=O)O)C3C(=O)N(c4ccccc4)C(=O)C23)=C(O)c2ccccc21 (configuration not stated)	inactive
N=c1n(CC(=O)c2ccc([N+](=O)[O-])cc2)c2ccccc2n1Cc1ccccc1Cl	inactive
CN(c1ccccc1C(=O)N1CCN(c2ccccc2)CC1)S(C)(=O)=O	inactive
COc1cccc(C2CC(C(F)(F)F)n3ncc(C(=O)NCc4ccco4)c3N2)c1 (configuration not stated)	inactive
N#CCc1c(C#N)c(N)nc(Nc2ccccc2)c1C#N	inactive
O=C(CCC(=O)Nc1ccc(F)cc1)N/N=C/c1ccccc1O	active: 25.1 µM
Cn1c(Sc2nc3ccccc3n2C)nc2ccccc21	inactive
COc1cc(OC)cc(C(=O)Nc2nc(-c3ccccc3)c(-c3ccccc3)o2)c1	inconclusive: 35.5 µM [inhibitor, single point]
CC1=CC(C/C(C)=C/COc2ccc3ccc(=O)oc3c2)OC1=O (configuration not stated)	inconclusive: 28.2 µM [inhibitor, partial curve]
O=C(CCCCl)NC(=S)Nc1cc(C(F)(F)F)ccc1N1CCOCC1	inactive
CSc1nc2nccc(/C=C\c3ccccc3)n2n1	inconclusive: 25.1 µM [inhibitor, single point]
S=C(NC12CC3CC(CC(C3)C1)C2)N1CCCC1	inactive
CCN1C(=O)[C@@H]2[C@H](C1=O)[C@@H]1C[C@H]3C(=O)N(CC)C(=O)[C@H]3[C@@H]3C1=C(C(=O)N1C(=O)OC(=NCC4CC4)[C@]31C)[C@@H]2C	inactive
O=C1c2ccccc2CCC1C(O)c1ccccn1 (configuration not stated)	inconclusive: 39.8 µM [inhibitor, single point]
CCN(CC)C(=O)CN1C(=O)C2(NC(=O)c3ccccc3N2)c2ccccc21 (configuration not stated)	inconclusive: 31.6 µM [inhibitor, partial curve]
Cc1ccc(Cn2cccc(-c3nc4ccccc4s3)c2=O)cc1	inconclusive: 22.4 µM [inhibitor, partial curve]
Clc1ccccc1-c1nnc2sc(-c3ccc4c(c3)OCO4)nn12	inconclusive: 31.6 µM [inhibitor, partial curve]
CCOC(=O)c1c(-c2ccc(C)o2)csc1NC(=O)CN1CCCCC1	inactive
CCn1c(SCC(=O)Nc2ccccc2C(=O)OC)nnc1-c1ccc(N)cc1	inactive
COc1cc2nc(CN(CCC(C)C)Cc3nc4cc(OC)c(OC)cc4c(=O)[nH]3)[nH]c(=O)c2cc1OC	inconclusive: 39.8 µM [inhibitor, single point]
O=C(NCc1cccnc1)c1cc(-c2ccco2)on1	inconclusive: 22.4 µM [inhibitor, single point]
O=c1c2ccccc2[nH]c(=S)n1CCCN1CCOCC1	inactive
CCCC(=O)NNc1c2ccccc2nc2ccccc12	inconclusive: 31.6 µM [inhibitor, partial curve]
Cc1csc(NC(=O)c2cc(C)nc3ccccc23)n1	inactive

SMILES	Potency
CC(C)C[C@@H](CC(=O)N[C@@H](CCCN)CC(=O)N[C@@H]1CCCC[C@H]1C(=O)N[C@H](CC(=O)N[C@@H](CCC(=O)O)CC(=O)O)Cc1c[nH]c2ccccc12)NC(=O)[C@@H]1CNCC[C@H]1N	inactive
Clc1ccc(-c2ccc(C=Nc3ccc(N4CCOCC4)cc3)o2)cc1	inconclusive: 28.2 µM [inhibitor, single point]
Cc1ccc(-n2c(SCC(=O)NCc3ccco3)nc3c(sc4ccccc43)c2=O)cc1	inconclusive: 20 µM [inhibitor, partial curve]
CN(C)c1cccc(C(=O)OC(C(=O)Nc2ccc(Cl)cc2C(F)(F)F)c2ccccc2)c1 (configuration not stated)	inconclusive: 0.708 µM [inhibitor, partial curve, poor fit]
COc1ccccc1CNC(=O)CCCc1ccccc1	inactive
COc1ccc(S(=O)(=O)N2CCC(C(=O)Nc3ccccc3C)CC2)c2cccnc12	inactive
CC(=O)N/N=C/c1cc(C(C)(C)C)cc(/C=N/NC(C)=O)c1O	active: 22.4 µM
C#CCOCCOCCOCCNc1nc(N2CCN(C(=O)C(Cc3ccc(O)cc3)n3cc(C(N)CC(C)C)nn3)CC2)nc(N2CCN(C(=O)C(Cc3cc4ccccc4[nH]3)n3cc(C(N)Cc4ccc(O)cc4)nn3)CC2)n1 (configuration not stated)	inactive
Cc1oc2c(CN3CCCC3)c(O)ccc2c(=O)c1-c1ccc(Br)cc1	inconclusive: 28.2 µM [inhibitor, partial curve]
CCC(=O)Nc1ccc2c(c1)C(=O)c1ccccc1C2=O	inactive
NC(=O)NC(=O)CC1S/C(=N/N=C2\CSC(=O)N2)NC1=O (configuration not stated)	inactive
O=C(Oc1cccnc1)c1cc2ccccc2oc1=O	inconclusive: 31.6 µM [inhibitor, partial curve]
O=c1[nH]c2ccccc2c(=O)n1Cc1ccccc1	inconclusive: 25.1 µM [inhibitor, partial curve]
Cc1ccccc1OCC(=O)Nc1ccc2oc(=O)ccc2c1	inconclusive: 39.8 µM [inhibitor, single point]
COc1ccc(-c2cnc(-c3cccnc3)o2)cc1	inconclusive: 31.6 µM [inhibitor, partial curve]
O=c1nc(SCc2cccc(C(F)(F)F)c2)nc2ccccn12	inconclusive: 25.1 µM [inhibitor, single point]
CC12C(=O)OC(=O)C1(C)C1CCC2O1 (configuration not stated)	inconclusive: 39.8 µM [inhibitor, single point]
CCOC(=O)c1[nH]c2ccccc2c1NC(=O)c1ccco1	inactive
CCOC(=O)CNC(=O)Cn1c(C)cc2ccccc2c1=O	inconclusive: 25.1 µM [inhibitor, partial curve]
Cc1ccc(C(C)C)c(OCc2ccc(C(=O)N/N=C/c3ccc(O)cc3O)cc2)c1	inconclusive: 31.6 µM [inhibitor, single point]
Nc1nc2c(ncn2COC(CO)CO)c(=O)[nH]1	inactive
Cc1nccn1CC(O)COC1CCCCC1 (configuration not stated)	inconclusive: 25.1 µM [inhibitor, single point]
CCOC(=O)C1=C(SCC(=O)Nc2ccccc2)NC(=O)C(C#N)C12CCCCC2 (configuration not stated)	inactive
CCN(c1ccccc1)S(=O)(=O)c1ccc2[nH]cc(C(=O)NCCOC)c(=O)c2c1	inconclusive: 22.4 µM [inhibitor, single point]

From PubChem BioAssay AID2147 (National Center for Advancing Translational Sciences (NCATS), 2009)
